Reference: PubChem BioAssay AID1030 (National Center for Advancing Translational Sciences (NCATS), 2008)
In all, about 220,000 compounds went through this assay and about 16,000 (7.3%) were called active. The shares of active, inactive and inconclusive entries below differ from those in the screen. Calls come from the whole dose curve; as a rule, active = well fitted inhibition curve with a large enough effect (not every such curve was filed as active); inconclusive = small, poorly fitted or top-dose-only effect, or another doubt; inactive = no such curve, though single readings can be large or run the other way. No potency is given beside an inconclusive call; the fits are too rough.
Potency is the fitted concentration of half-maximal effect; tags give direction and shape of the fitted curve.
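Throughout, for activity, negative = inhibition: plate controls were no enzyme wells and a reference inhibitor.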

The molecules below were run against Aldehyde dehydrogenase 1A1 (Homo sapiens) (UniProt P00352) (assay: qHTS Assay for Inhibitors of Aldehyde Dehydrogenase 1 (ALDH1A1)). Conditions: Purified ALDH1A1, NADH fluorescence, propionaldehyde substrate; series mostly up to 75.3 µM.
UniProt P00352, sequence (P00352 whole entry, looked up): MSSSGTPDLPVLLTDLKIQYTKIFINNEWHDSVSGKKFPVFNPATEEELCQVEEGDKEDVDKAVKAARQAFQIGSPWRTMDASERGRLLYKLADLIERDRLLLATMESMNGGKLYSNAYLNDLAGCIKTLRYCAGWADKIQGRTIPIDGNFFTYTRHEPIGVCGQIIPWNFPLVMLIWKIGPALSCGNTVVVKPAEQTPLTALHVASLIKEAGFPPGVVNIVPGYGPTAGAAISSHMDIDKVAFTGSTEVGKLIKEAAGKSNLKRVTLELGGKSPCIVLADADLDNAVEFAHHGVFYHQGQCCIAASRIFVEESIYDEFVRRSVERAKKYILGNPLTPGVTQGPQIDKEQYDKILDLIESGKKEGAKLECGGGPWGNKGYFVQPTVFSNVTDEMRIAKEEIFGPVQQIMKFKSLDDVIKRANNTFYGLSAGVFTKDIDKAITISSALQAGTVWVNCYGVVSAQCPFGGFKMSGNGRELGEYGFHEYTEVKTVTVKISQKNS
For `COc1ccc(N2CCN(CCCNC(=O)c3cc4sccc4n3C)CC2)cc1`, the Potency was “inactive”. In the case of `O=C(CCN1CCC(c2cccs2)=N1)c1cccs1`, the Potency is reported as active: 3.16 µM. `O=C(Nc1ccc2oc(-c3ccccc3)nc2c1)c1ccco1` was tested, and the Potency was “inactive”. In the case of `COc1cccc(C2NC(=O)NC(O)(C(F)(F)F)C2C(=O)c2cccnc2)c1OC` (stereo unspecified), the Potency is reported as active: 11.2 µM. With `O=C1C2C3C=CC(CC3)C2C(=O)N1/N=C/c1ccccc1O` (stereo unspecified) the Potency was inconclusive [inhibitor, partial curve]. `O=[N+]([O-])c1ccccc1N=Nc1c(O)[nH]c2ccc(S(=O)(=O)O)cc12` was tested, and the activity, negative = inhibition was inactive: -8.27% [at 13.5 µM]. `c1ccc(Cn2c(CNc3nc4ccccc4n3CCN3CCOCC3)nc3ccccc32)cc1` was tested, and the Potency was “inactive”. `CCC(CO)Nc1ccc(-c2nn(C)c(=O)c3ccccc23)cc1[N+](=O)[O-]` (stereo unspecified) was tested, and the Potency was active: 1.41 µM. In the case of `COc1ccccc1C(=O)O/N=C(\c1ccccc1)c1ccncc1`, the Potency is reported as inconclusive [inhibitor, single point]. For `CCCCCC(=O)N1CCN(CCN=CC2=C(O)CC(c3ccc(OC)cc3)CC2=O)CC1` (stereo unspecified), the Potency was inconclusive [inhibitor, partial curve]. `c1ccc2c(c1)[nH]c1c(NCC3CCCO3)ncnc12` (stereo unspecified) was tested, and the Potency was inconclusive [inhibitor, partial curve]. With `CC(=O)c1cc(NC(=O)c2ccc(C)cc2)c(=O)oc1/C=C/N(C)C` the Potency was inconclusive [inhibitor, single point]. In the case of `Cc1ccc(C(=O)Nc2ccc(C(=O)N3CCCCC3C)cc2)cc1` (stereo unspecified), the Potency is reported as inconclusive [inhibitor, single point]. In the case of `COc1ccc(C(=O)C2CCCN(C(=O)C3CCOCC3)C2)c(C)c1` (stereo unspecified), the Potency is reported as inconclusive [inhibitor, single point]. `c1csc(Cn2nnnc2CN2CCN(c3nc4ccccc4s3)CC2)c1` was tested, and the Potency was active: 15.8 µM. In the case of `Cc1ccc(Cl)cc1NC(=O)Cn1cc2c(n1)CCCC2`, the Potency is reported as “inactive”. In the case of `CC(=O)Nc1ccc(S(=O)(=O)Oc2ccc3c(c2)C(C)=CC(C)(C)N3)cc1`, the Potency is reported as “inactive”. For `CO[C@H]1COC(=O)[C@H](C)NC(=O)[C@@H](C)COC(=O)C/C=C\[C@@H]1C`, the activity, negative = inhibition was inactive: 8.56% [at 13.5 µM]. In the case of `O=C(OCc1ccccc1)c1cccc(-c2nnc(-c3ccccc3)o2)c1`, the Potency is reported as inconclusive [inhibitor, single point]. In the case of `Cc1nc(NC(N)=S)sc1C(=O)Nc1ccccc1`, the Potency is reported as inconclusive [inhibitor, single point]. For `CCOC(=O)c1c(C)[nH]c(C(=O)OCC(=O)Nc2cc(C)ccc2OC)c1C`, the Potency was “inactive”. With `O=c1cc(N2CCCCC2)c2ccccc2o1` the Potency was inconclusive [inhibitor, single point]. In the case of `O=c1[nH]c2ccccc2nc1Cc1ccccc1`, the Potency is reported as inconclusive [inhibitor, single point]. `NC(=O)[C@@H]1CCCCNc2c(F)cc([N+](=O)[O-])cc2C(=O)N[C@@H](CC(=O)O)C(=O)NCC(=O)N1` was tested, and the Potency was “inactive”. With `Cc1cc(C)c[n+](C2=C([O-])c3ccccc3C(=O)/C2=N\S(=O)(=O)c2cccs2)c1` the Potency was “inactive”. `CSc1c(SCc2ccccc2)cnn(Cc2ccccc2)c1=O` was tested, and the Potency was active: 11.2 µM. `CCc1c(C)nc2c(C)cccc2c1SCCC#N` was tested, and the Potency was active: 7.94 µM. For `CC(=O)NC(Cc1cccc(C)c1)C(=O)NC1CCN(c2ncccc2[N+](=O)[O-])CC1` (stereo unspecified), the Potency was inconclusive [inhibitor, single point]. With `Cc1ccc(C(C(=O)NCc2ccco2)N(Cc2ccco2)C(=O)CNC(=O)c2ccco2)cc1` (stereo unspecified) the Potency was inconclusive [inhibitor, single point]. With `COc1ccc(-c2cc(NCCc3ccncc3)n3ncnc3n2)cc1` the Potency was inconclusive [inhibitor, partial curve]. For `CCOC(=O)c1c(N)sc(C)c1-c1ccccc1`, the Potency was inconclusive [inhibitor, single point]. In the case of `CCOC(=O)c1c(CN(C)C)n(-c2ccccc2)c2cc(Br)c(OC)cc12`, the Potency is reported as inconclusive [inhibitor, partial curve]. With `O=C1c2ccccc2CN1CCNS(=O)(=O)c1ccc2ccccc2c1` the Potency was inconclusive [inhibitor, single point]. With `CCN1CCCC1CN(Cc1cc2cc(OC)ccc2[nH]c1=O)C(=O)NCc1ccccc1` (stereo unspecified) the Potency was inconclusive [inhibitor, single point]. For `c1ccc(Nc2nnc(SCc3cccc4ccccc34)s2)cc1`, the Potency was “inactive”. For `COC(=O)CSC1=C(C#N)C(=O)NC(c2ccccc2)S1` (stereo unspecified), the Potency was active: 23.8 µM. In the case of `O=C(CSc1nnc(-c2cccnc2)o1)Nc1ccc(Cl)cc1`, the Potency is reported as “inactive”. For `CC(=O)n1cc(Nc2ccc([N+](=O)[O-])cc2)c2ccccc21`, the Potency was inconclusive [inhibitor, single point]. For `CC(C)CN(C(=O)COC(=O)c1c(Cl)ccc(Cl)c1Cl)C1CCS(=O)(=O)C1` (stereo unspecified), the Potency was inconclusive [inhibitor, single point]. `Cc1oc(C(=O)O)cc1CSCc1cc(C(=O)O)c(C)o1` was tested, and the Potency was inconclusive [inhibitor, single point]. `COc1ccc(CNC(=O)Cn2cc(C(F)(F)F)ccc2=O)cc1` was tested, and the Potency was inconclusive [inhibitor, single point]. `Cc1ccccc1CNC(=O)CC1C(=O)NCCN1CC1CCCCC1` (stereo unspecified) was tested, and the Potency was inconclusive [inhibitor, partial curve]. `CCn1c(=N)n(CC(=O)C23CC4CC(CC(C4)C2)C3)c2ccccc21` was tested, and the Potency was active: 22.4 µM. In the case of `CCNc1ncc2nc(-c3ccccc3)c(=O)n(C)c2n1`, the Potency is reported as inconclusive [inhibitor, partial curve]. `CN(Cc1ccco1)c1ccnc(-c2cccnc2)n1` was tested, and the Potency was inconclusive [inhibitor, single point]. In the case of `COc1ccc(-n2c(Cc3cccn3C)nnc2SCC(=O)N2CCCc3ccccc32)cc1`, the Potency is reported as inconclusive [inhibitor, single point]. `O=C(NCc1ccco1)C(=O)NCC1OCCN1S(=O)(=O)c1ccccc1` (stereo unspecified) was tested, and the Potency was inconclusive [inhibitor, partial curve, poor fit]. With `COc1ccc(NC(=O)COc2ccc3c(c2)CCC3)cc1` the Potency was inconclusive [inhibitor, single point]. With `Cc1cccc(C)c1NC(=O)CN(C)CC(=O)Nc1cc(Cl)ccc1C#N` the Potency was inconclusive [inhibitor, partial curve]. `CCC1=C(OC(=O)N(CC)CC)N2C(=O)OC(=NCCOC)[C@]2(C)[C@H]2C1=CC[C@H]1C(=O)N(CC)C(=O)[C@H]12` was tested, and the Potency was “inactive”. In the case of `Nc1ccc2nc(-c3ccccc3)[nH]c2c1`, the Potency is reported as inconclusive [inhibitor, partial curve]. For `CC1CCC(NC(=O)CC(C)(C)Cc2nc3ccccc3c(=O)[nH]2)CC1` (stereo unspecified), the Potency was inconclusive [inhibitor, single point]. For `COC(/C=C/Nc1ccc(Cl)cc1)=C(C#N)C#N`, the Potency was inconclusive [inhibitor, single point]. With `Cc1cc2nc(-c3ccc(SCc4ccccn4)nc3)[nH]c2cc1C` the Potency was inconclusive [inhibitor, partial curve]. For `Cc1ccc(CN2CCN(/N=C/c3cccnc3)CC2)c(C)c1`, the Potency was inconclusive [inhibitor, single point]. `O=C(NC1CCCCCC1)C1CCC(CNS(=O)(=O)c2ccc(Br)s2)CC1` (stereo unspecified) was tested, and the Potency was “inactive”. `CC1(C)OC(C)(C)/C(=C/Nc2ccccc2)C1=O` was tested, and the Potency was “inactive”. For `CCOC(=O)C1=C(CSc2nc(-c3ccccc3)ccc2C#N)OC(N)=C(C#N)C1c1cccnc1` (stereo unspecified), the Potency was inconclusive [inhibitor, single point]. In the case of `O=C(CSC1=NCCS1)Nc1cccc2ccccc12`, the Potency is reported as inconclusive [inhibitor, single point]. In the case of `O=C(NCCc1ccccn1)C1CC(=O)N(Cc2ccccc2Cl)C1` (stereo unspecified), the Potency is reported as inconclusive [inhibitor, single point]. For `Cc1oc2c(c1C(=O)Nc1cccc3ccccc13)CCCC2`, the Potency was inconclusive [inhibitor, full curve]. For `CC(C)CCNC(=O)C(c1ccc(O)cc1)N(Cc1cccs1)C(=O)C1COc2ccccc2O1` (stereo unspecified), the Potency was “inactive”. `C=CCc1ccccc1OCC(O)CNC` (stereo unspecified) was tested, and the Potency was active: 22.4 µM. In the case of `Fc1cc(Cl)ccc1NC(=S)NCCN1CCOCC1`, the Potency is reported as inconclusive [inhibitor, single point]. For `COC(=O)c1cc(NCc2ccc3c(c2)OCO3)ccc1N1CCOCC1`, the Potency was active: 14.1 µM. With `Cc1ncc(CO)c(CO)c1O` the Potency was inconclusive [inhibitor, single point]. With `CCCn1c(-c2ccc(F)cc2)nc2c(NCCN(CC)CC)nc(C)nc21` the Potency was inconclusive [inhibitor, single point]. In the case of `O=C(CSc1ccccn1)N1CCN(c2ncc(C(F)(F)F)cc2Cl)CC1`, the Potency is reported as inconclusive [inhibitor, single point]. For `c1cnc(-c2nnc3n2CCCCC3)cn1`, the Potency was inconclusive [inhibitor, single point]. For `CC(C)C(=O)Nc1ccc2nn(-c3ccccc3)nc2c1`, the Potency was inconclusive [inhibitor, partial curve]. `CC(=O)Nc1ccc(CN2CCN(c3cccc(C(F)(F)F)c3)CC2)cc1` was tested, and the Potency was inconclusive [inhibitor, partial curve].
